# Experimental data as given in PubChem BioAssay AID760 (NMMLSC, 2007).
# Among all 190,000 compounds or so, about 360 (0.19%) were called active. Inconclusive means that the source gave no clear call. Such entries were picked first, then a sample of the others.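 The calls were made as follows: active = GTP binding activity at least 20 points away from 100%, either lowered or raised; inconclusive = signal likely due to the compound's own green fluorescence; inactive = the rest.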
# Target: Ras-related protein Rab-2A (Canis lupus familiaris) (UniProt P61105)
# Test: Rab2 wt fluorescent GTP binding changes, either direction – biochemical, dog, bead-based flow cytometry, multiplex, primary screen (AID 760);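 also: 0% = beads with excess unlabeled GTP and 100% = no-compound control corrected for plate trend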
# Conditions: GST-Rab2 wt beads, Bodipy-GTP binding, at 10 µM
row,SMILES,GTP binding activity
1,COc1ccc(S(=O)(=O)n2oc(=O)cc2-c2ccccc2)cc1,active: 79%
2,Cc1nn(Cc2ccc(F)cc2)c2sc(C(=O)Nc3ccc(N4CCOCC4)cc3N3CCOCC3)cc12,inconclusive: 96%
3,CC(C)N(C)NC(=S)Nc1ccccc1,inconclusive: 266%
4,CC(=O)c1ccc(-n2nncc2-c2ccc([N+](=O)[O-])cc2)cc1,inconclusive: 95%
5,CCS(=O)(=O)N1CCN(CC(=O)NC2CCCCC2)CC1,inactive: 99%
6,c1ccc2oc(SCc3nc4ccccc4s3)nc2c1,inconclusive: 84%
7,CCOc1ccc(C2C(C(=O)O)CCC(=O)N2C2CCCCC2)cc1 (centres undefined),active: 73%
8,Fc1ccc(C(Nc2ccccn2)c2c[nH]c3ccccc23)cc1 (centres undefined),inconclusive: 89%
9,CCOc1c(Cl)cc(Cl)cc1CNCCNCCO,inconclusive: 106%
10,CCOc1ccc(N2C(=O)CC(N(CCc3ccc(OC)cc3)C(=O)/C=C/C(=O)O)C2=O)cc1 (centres undefined),inconclusive: 91%
11,Cn1nnnc1Sc1ncnc2scc(-c3ccc(F)cc3)c12,inconclusive: 170%
12,COc1ccc(-c2cc(-c3ccccc3)n3ncnc3n2)cc1,inconclusive: 108%
13,COc1ccc(NC(=S)NC(=O)CC(C)C)c(OC)c1,inactive: 101%
14,O=C(NCc1ccc2c(c1)OCO2)c1ccc(S(=O)(=O)N2CCOCC2)cc1,inactive: 101%
15,COc1cccc2cc(-c3ccnc(=S)[nH]3)oc12,inconclusive: 68%
16,CCOC(=O)CSc1nc2c(sc(=S)n2-c2ccccc2)c(=O)[nH]1,inconclusive: 88%
17,COc1ccc(NC(=O)CSc2[nH]c(=O)cc(C)c2C#N)cc1OC,inconclusive: 92%
18,O=C(Nc1nc(-c2ccncc2)cs1)c1ccc(S(=O)(=O)N2CCOCC2)cc1,inconclusive: 90%
19,COc1ccc(/C=C/C(=O)Nc2ccccc2C(F)(F)F)cc1OC,inconclusive: 90%
20,CN(C)S(=O)(=O)c1ccc(Cl)c(C(=O)Nc2nc3ccccc3[nH]2)c1,inconclusive: 91%
21,CN(C)C(=O)CSc1nc(SCC(=O)N(C)C)n(-c2ccccc2)n1,inconclusive: 100%
22,Cc1cc(C)cc(NC(=O)NCc2nnc(SCc3ccccc3)n2C)c1,inconclusive: 91%
23,O=S(=O)(Cc1ccccc1)N1CCc2ccccc21,active: 37%
24,C=CCN1C(=O)/C(=C/c2ccc(N(C)C)cc2)S/C1=N\c1nnc(CC)s1,inconclusive: 143%

row,SMILES,GTP binding activity
1,O=C(O)c1ccc(Br)c(S(=O)(=O)N2CCCC2)c1,inconclusive: 120%
2,Cc1n[nH]c(C)c1CCOc1ccc(C(C)C)cc1,inconclusive: 89%
3,COc1cccc(-n2ccnc2SCC(=O)Nc2ccccc2F)c1,inconclusive: 93%
4,CCOC(=O)c1c(-c2ccccc2)csc1NC(=O)/C(C#N)=C/c1ccc(O)c(OC)c1,inconclusive: 160%
5,CCNC(=S)N1CCNC(=O)C1CC(=O)OC (centres undefined),inactive: 99%
6,CCN(C(=O)CSc1nnc(C)n1-c1ccccc1)C1CCS(=O)(=O)C1 (centres undefined),inconclusive: 92%
7,CCCCC(=O)Nc1ccc(C(=O)NNC(=O)CCc2ccccc2)cc1,inconclusive: 108%
8,NC1=NC(=O)/C(=C\c2ccc(O)c([N+](=O)[O-])c2)S1,active: 63%
9,O=c1c2ccccc2nc2ccc(NCc3ccco3)nn12,active: 79%
10,Cc1ccccc1C(=O)NNC(=O)c1cccc([N+](=O)[O-])c1,inconclusive: 97%
11,Cn1nnnc1SCc1ccc(C(=O)Nc2nccs2)cc1,active: 72%
12,CC(C)Oc1ccc(C(CC(=O)O)n2cnnn2)cc1 (centres undefined),inconclusive: 95%
13,CCOc1ccc(-n2c(=S)sc3c(=O)[nH]c(SCC(=O)N4CCC(C)CC4)nc32)cc1,inconclusive: 97%
14,CC1Oc2ccccc2OC1C(=O)Nc1ccccn1 (centres undefined),inconclusive: 100%
15,O=C(NCc1ccco1)/C(=C\c1cccs1)NC(=O)c1ccco1,inconclusive: 92%
16,Cc1c(C(=O)Nc2ccc(F)cc2)c2ccccn2c1CCc1ccncc1,inactive: 96%
17,CC(C)(C)NCCOc1ccc(Br)cc1,inconclusive: 104%
18,Cc1cc(C)c2cc(CNC3CCCC3)c(Cl)nc2c1,inconclusive: 122%
19,COC(=O)c1ccccc1NC(=O)C1COc2ccccc2O1 (centres undefined),inconclusive: 94%
20,CCN(CC)C(=O)/C(=C\c1ccc2c(c1)OCO2)NC(=O)c1ccc(Br)cc1,inconclusive: 94%
21,CC(c1ccccc1)N1CC(C(=O)N2CCN(c3ccc(F)cc3)CC2)CC1=O (centres undefined),inconclusive: 90%
22,COc1ccc(CC(=O)Nc2ccc(S(=O)(=O)NC(C)C)cc2)cc1,active: 29%
23,CCOC(=O)/C=C/C(=O)Nc1ccc(Oc2ccccc2)cc1,inconclusive: 94%
24,O=C(NCCc1ccccc1)c1c(F)c(F)c(F)c(F)c1F,inactive: 98%

row,SMILES,GTP binding activity
1,CSc1ccccc1NC(=O)c1cc(-c2cccnc2)nc2ccc(Br)cc12,inactive: 102%
2,CC1CN(C(=O)CSc2nnc(-c3ccncc3)n2-c2ccccc2)CC(C)O1 (centres undefined),inconclusive: 91%
3,O=C1/C(=C\c2ccc(-c3ccccc3Cl)o2)SC(=S)N1CC1CCCO1 (centres undefined),active: 62%
4,CSc1cccc(NS(=O)(=O)c2cccc3nsnc23)c1,inconclusive: 98%
5,COC(=O)c1sccc1NC(=O)Nc1cccc(F)c1,inconclusive: 89%
6,COc1ccc2cc(C)c3nnc(SCc4cccnc4)n3c2c1,inactive: 83%
7,Cc1cc(C)nc(NS(=O)(=O)c2ccc(NC(=O)CCC3COc4ccccc4O3)cc2)n1 (centres undefined),inconclusive: 92%
8,CC(C)C(=O)Nc1c(O)c2ccccc2[nH]c1=O,inconclusive: 96%
9,O=C1CCCc2ccccc2N1Cc1ccccc1,inconclusive: 89%
10,CCn1c(=O)c(C(=O)Nn2c(C)nc3ccccc3c2=O)c(O)c2ccccc21,inconclusive: 86%
11,O=C(CCc1ccccn1)N1CCCC(CNS(=O)(=O)c2cccs2)C1 (centres undefined),active: 62%
12,O=C1NC(=S)N/C1=C/c1cc([N+](=O)[O-])ccc1N1CCOCC1,inconclusive: 85%
13,Cc1ccc(-n2c(-c3cnccn3)n[nH]c2=S)c(Br)c1,inactive: 82%
14,O=C(c1ccccc1)c1ccc(O)cc1O,inconclusive: 111%
15,O=C(O)CCCCCN1C(=O)C(O)=C(C(=O)/C=C/c2ccccc2)C1c1ccc2c(c1)OCO2 (centres undefined),inconclusive: 87%
16,CC(C)(C)C1CCc2onc(C(=O)Nc3cnn(Cc4ccc(F)cc4)c3)c2C1 (centres undefined),inconclusive: 105%
17,COc1cc2c(cc1NC(=O)CSc1ccccn1)oc1ccccc12,inconclusive: 100%
18,c1ccc(CSc2nnnn2-c2cccc3ccccc23)nc1,inconclusive: 104%
19,CCOc1cc(NC(=S)NCCCN(C)C)c(OCC)cc1NC(=O)c1cccs1,inconclusive: 101%
20,COc1ccc(C(=O)NCc2nnc(SCC(=O)NCc3ccc(F)cc3)o2)cc1,inconclusive: 102%
21,CCOc1ccc(C(=O)NCC(=O)N2CCC(C)CC2)cc1OCC,inactive: 96%
22,COc1cc(/C=N/Nc2nncn2/N=C/c2ccc(O)c(OC)c2)ccc1O,active: 79%
23,O=C(NNC(=O)c1cccc(O)c1)Nc1ccc([N+](=O)[O-])cc1,inconclusive: 95%
24,COc1ccc(-c2ccc(SCC(=O)Nc3nnc(C)s3)nn2)cc1,inconclusive: 93%

row,SMILES,GTP binding activity
1,COc1cccc(C2=NN(C(=O)c3ccccc3)C(O)(C(F)(F)F)C2)c1 (centres undefined),inconclusive: 103%
2,O=C(/C=C/c1cn(-c2ccccc2)nc1-c1ccccc1)Nc1ccc(C(=O)O)cc1,inconclusive: 80%
3,c1cnc(N2CCN(Cc3ccc4c(c3)OCO4)CC2)nc1,inconclusive: 103%
4,C/C(=N/NC(=O)c1ccoc1C)c1ccc(NC(=O)c2ccncc2)cc1,inactive: 99%
5,CNC(=O)c1ccc(Nc2nnc(-c3ccc(C)c(S(=O)(=O)NCC4CCCO4)c3)c3ccccc23)cc1 (centres undefined),inconclusive: 93%
6,CCOc1cccc(NC(=O)c2cccc(F)c2)c1,inactive: 93%
7,Cc1c(C(=O)Nc2nc3ccccc3[nH]2)oc2c(Cl)cccc12,inconclusive: 73%
8,CC1CCOC2(O1)C(=O)N(CN1CCN(c3ccccc3F)CC1)c1ccccc12 (centres undefined),inconclusive: 106%
9,Cc1ccc(NC(=O)Cn2nc(C)cc2C)cc1,inconclusive: 105%
10,CCCNC(=S)N1CCC(n2cnc3ccccc32)CC1,inconclusive: 98%
11,Cc1ccc[n+](CC(=O)Nc2cc(C(F)(F)F)ccc2N2CCOCC2)c1,inconclusive: 92%
12,O=C(O)CC(NC(=O)C1CCCCC1)c1ccc(OC2CCCC2)cc1 (centres undefined),inconclusive: 95%
13,CCC1SC(CC)C(=O)N(CC(=O)Nc2ccc3c(c2)OCO3)C1=O (centres undefined),inactive: 99%
14,O=C(NC(Cc1c[nH]c2ccccc12)C(=O)O)c1ccc(Br)cc1 (centres undefined),inactive: 91%
15,Cn1nc([N+](=O)[O-])c(C(C#N)c2ccccn2)c(Cl)c1=O (centres undefined),inactive: 80%
16,Nc1ccc(C2CCCc3nonc32)c2nonc12 (centres undefined),inconclusive: 91%
17,CCc1ccccc1NC(=O)CSc1nc2n[nH]c(C)c2c(=N)n1-c1cccc(OC)c1,inconclusive: 85%
18,CCCCN(C)CCNC(=O)CCNC(=O)Cn1ccc2ccccc2c1=O,inactive: 96%
19,COC(=O)c1cc2c(C)cc3ccc(C)cn3c-2c1C(=O)OC,inconclusive: 91%
20,COc1ccc(OC)c(CC(NC(C)=O)C(=O)NC2CCN(c3cc(C)nc4ncnn34)CC2)c1 (centres undefined),inactive: 99%
21,Cc1ccc(C2=NN(S(=O)(=O)c3ccccc3)C(c3ccccc3O)C2)cc1 (centres undefined),inconclusive: 123%
22,O=C(Cn1cnc2cc([N+](=O)[O-])ccc2c1=O)NCCc1ccc(F)cc1,inconclusive: 80%
